PubChem BioAssay AID1656 (Sanford-Burnham Center for Chemical Genomics, 2009)
Some of the results follow. Further columns of the screen follow, without active or inactive calls. Most of these compounds were active or inconclusive in the main read-out, so they are no random draw.

Test: inhibitors of hepatocyte lipid droplet formation, primary screen, imaging, high-throughput imaging, BODIPY stain (AID 1656);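 also: cells counted across two imaged fields per well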
Details: AML12 mouse hepatocytes, oleate lipid droplets, measured here: cell count, cytotoxicity flag, at 6.5 µM
Outline: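 material = mouse AML12 hepatocyte cell line, fixed after treatment | also added = 100 µM oleic acid challenge | doses = compound at 6.5 µM only | schedule = overnight exposure | technique = Image-based BODIPY and DAPI two-channel analysis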

Compound	cell count
COc1ccc(S(=O)(=O)N(CC(=O)N2CCCCCC2)c2ccccc2OC)cc1	780 cells
Cc1[nH]n(-c2ccccc2)c(=O)c1N=Nc1cccc(Cl)c1	837 cells
CCOc1ccccc1NS(=O)(=O)c1ccc(-c2cnc(C3CC3)o2)cc1	192 cells
CCC1(c2ccccc2)NC(=O)N(CC(=O)NCc2ccc(OC)cc2)C1=O (stereo not given)	69 cells
O=C1OCC2=C1C(c1ccc(F)cc1)c1cc3c(cc1N2)OCCO3 (stereo not given)	70 cells
Cc1c(NC(=S)N/N=C\c2ccccc2O)c(=O)n(-c2ccccc2)n1C	291 cells
CCn1cc(CCCC(=O)NCc2cccc(OC)c2)c2ccccc21	848 cells
Cc1ccc(C)c(NC(=S)c2ccc3ccccc3n2)c1	576 cells
COc1ccc(CC(=O)Nn2c(-c3ccccc3)nc3ccccc3c2=O)cc1	677 cells
Cc1ccc2nc(Cl)c(/C=N/NC(=O)[C@H]3C[C@@H]3c3ccccc3)cc2c1	685 cells
CCCc1nc2ccccc2c(C(=O)OC(C)C(=O)NCc2ccc3c(c2)OCO3)c1CC (stereo not given)	671 cells
COc1ccc2c(c1)c(/C=N/Nc1nc3ccccc3[nH]1)c(C)n2C	157 cells
CC1=CC(=O)C=C(C)C1=NOc1ccccc1[N+](=O)[O-]	38 cells
CCc1ccccc1NC(=O)C1=CC(c2cccs2)=NS(=O)(=O)N1C	780 cells
O=C(O)CSCC(=O)Nc1ccc(C2CCCCC2)cc1	154 cells
Cc1noc(C)c1C(=O)Nc1ccc(F)cc1F	771 cells
Cc1ccc(-n2nc3c(=O)n(C(C)C(=O)NCCc4cccs4)nc(C)c3c2C)cc1 (stereo not given)	714 cells
CC(=O)C1=C(C)NC(SCSc2ccccc2)=C(C#N)C1c1cccnc1 (stereo not given)	556 cells
COc1ccc2c(c1)C(C)=CC(C)(C)N2S(=O)(=O)c1ccc(Br)cc1	237 cells
CC(=O)Cc1nsc(NC(=O)c2ccc(COc3ccccc3Cl)o2)n1	152 cells
CCOc1cc([C@@H]2C[C@H]3CN(c4ccccc4)C(=O)[C@]34CCCN24)ccc1OC	696 cells
CCN1CCN(Cc2ccc(NC(=O)c3ccc(C)c(NC(=O)C(=O)c4c[nH]c5ccccc45)c3)cc2C(F)(F)F)CC1	742 cells

Compound	cell count
CCCOc1ccc(/C=N/Nc2ccccc2[N+](=O)[O-])c(OCCC)c1	704 cells
COC(=O)c1ccc(CN2C(=O)c3ccccc3C2=O)o1	124 cells
CC(C)Cn1c(N)c(C(=O)COC(=O)c2cc(C3CC3)nc3ccccc23)c(=O)n(C)c1=O	642 cells
Cc1ccc(NC(=O)N2CCC(C(=O)c3ccc(F)cc3)CC2)cc1	830 cells
CCOc1ncccc1C(=O)N1CCN(c2cc(Cl)ccc2C)CC1	246 cells
COc1ccc(N2CCN(C(=O)c3cc(C)on3)CC2)cc1	811 cells
COc1cc(C(=O)Nc2nc(-c3ccc(C)cc3)cs2)ccc1OCC(=O)N1CCOCC1	690 cells
O=C(COC(=O)COc1ccc(Cl)cc1Cl)Nc1cccnc1Cl	734 cells
COC(=O)c1cc(-c2ccc(OC)cc2)nc2nc(SC)[nH]c(=O)c12	766 cells
CCCCOc1ccc(NC(=O)Cn2c(=O)ccc3c(C)cc(C)nc32)cc1	726 cells
O=C(CC(=O)N/N=C/c1ccc(F)cc1)N/N=C/c1ccc(F)cc1	286 cells
COc1ccc(Cl)c(NC(=O)C/C(C)=N/NC(=O)CCc2ccccc2)c1	798 cells
COc1ccc(Cl)cc1NC(=O)Nc1ccc(C(=O)N2CCCC2)cc1	813 cells
Clc1ccccc1CN(Cc1ccco1)Cc1nnnn1C1CCCC1	748 cells
CCOc1ccc(CCNC(=O)CS(=O)Cc2nc(-c3ccccc3C)oc2C)cc1OCC (stereo not given)	761 cells
O=C(CN1C(=O)NC2(CCOc3ccccc32)C1=O)c1ccc(Br)cc1 (stereo not given)	695 cells
CC(C)CN1C(=O)/C(=C/c2c(N3CCc4ccccc4C3)nc3ccccn3c2=O)SC1=S	700 cells
CCn1cc([N+](=O)[O-])c(C(=O)N2N=C(c3ccc4ccccc4c3)CC2c2cc(Br)ccc2O)n1 (stereo not given)	779 cells
CCOc1ccc2c(c1)-c1c(ssc1=S)C(C)(C)N2C(=O)c1ccco1	742 cells
CCOc1ccc(-c2csc(NNC3=NCCCCC3)n2)cc1	668 cells
COc1cccc(-c2nc(NCc3ccccc3)c3ccccc3n2)c1O	827 cells
Cc1cc(C=O)c(O)cc1O	826 cells

Compound	cell count
COc1ccc(COc2cc(-c3cccc(OC)c3)nc3ccc(N)cc23)cc1	39 cells
O=c1[nH]cnc2sc3c(c12)CCN(Cc1ccccc1)C3	558 cells
CN(C)c1ccc(N=Nc2ccccc2Br)cc1	811 cells
Cc1ccc([N+](=O)[O-])cc1NC(=O)C(C)Sc1nnc(C)n1CC1CCCO1 (stereo not given)	800 cells
CCc1nc2ccccc2c(C(=O)OCC(=O)NCc2ccc3c(c2)OCO3)c1C	731 cells
Cc1ccc(Nc2nc(N/N=C/c3c[nH]c4ccccc34)nc(N3CCOCC3)n2)cc1	568 cells
Cc1cccc(NC(=O)N2CCC(C(=O)c3ccc(F)cc3)CC2)c1	838 cells
CC(C)N=C(NS(=O)(=O)c1ccccc1)C(Cl)(Cl)Cl	35 cells
COc1cc([C@@H]2c3cc4c(cc3[C@@H](NC3CCN(Cc5ccccc5)CC3)[C@H]3COC(=O)[C@H]23)OCO4)cc(OC)c1O	121 cells
Cc1ccc(-n2nc3c(=O)n(CC(=O)NC(C)CCc4ccccc4)nc(C)c3c2C)cc1 (stereo not given)	780 cells
CCOC(=O)C1CCN(S(=O)(=O)c2ccc3c(c2)NC(=O)C(C)C(=O)N3)CC1 (stereo not given)	740 cells
COc1cc(/C=N/Nc2nc(Nc3ccccc3)nc(N3CCOCC3)n2)ccc1OC(=O)c1ccco1	29 cells
CCCCNC(=O)c1ccc2c(c1)N(C)C(=O)c1ccccc1S2	777 cells
COc1cccc(N2CCN(CC(=O)Nc3nnc(-c4ccccc4)s3)CC2)c1	728 cells
Cc1ccc(-n2nc3c(=O)n(CC(=O)NC4CCCCC4)nc(C)c3c2C)cc1	716 cells
CCOc1ccccc1N1CCN(C(=O)NCc2ccc(C)cc2)CC1	823 cells
CCOc1cc(C(=O)N/N=C/C(Br)=C/c2ccccc2)cc(OCC)c1OCC	211 cells
COC(=O)c1sc2cc([N+](=O)[O-])cc(SCC(C)C)c2c1N	699 cells
COc1ccc(C2(c3ccc(OC)cc3)NC(=O)N(CC(=O)Nc3ccccc3C)C2=O)cc1	709 cells
CCC(C)c1ccccc1NC(=O)COC(=O)c1ccc2[nH]c3c(c2c1)CCCC3 (stereo not given)	602 cells
O=C(CCl)N=c1sccn1Cc1cccc2ccccc12	231 cells
